Experimental data as given in ChEMBL document CHEMBL5308541, “MAIP: An Open-Source Tool to Enrich High-Throughput Screening Output and Identify Novel, Druglike Molecules with Antimalarial Activity” (ACS Med Chem Lett, 2023).
The whole screen tested about 150,000 compounds, of which about 540 (0.36%) showed an effect of 50% or more. The list shows a part of the results.

system: Plasmodium falciparum; assay: Primary screen in NF54 nanoGlo assay, in single point, at 2uM, 72h; a lower Z score goes with more inhibition; type: functional, Erythrocyte; conditions: timepoint 72 hour

Row | Structure (SMILES) | % Inhibition | Z score
1 | CN1CCN(CCNc2ccccc2Cl)CC1 | -5% | 0.81
2 | COC[C@H](NC(=O)c1nc2ccccc2s1)c1ccc(C)o1 | -8% | 1.66
3 | CCN1CCC(N(C)C(=O)C2CC3CCCCC3N2C(=O)c2sc3ccccc3c2Cl)CC1 (stereo not drawn) | 7% | -1.3
4 | Fc1ccc(CNC2CCN(Cc3ccco3)CC2)cc1Cl | 7% | -1.5
5 | O=C(c1ccc2[nH]ccc2c1)N1CCC[C@H](Cc2noc(-c3cnccn3)n2)C1 | -10% | 2.07
6 | CC[C@@H](CNc1nc(C)nc2sccc12)N(C)C | -8% | 1.73
7 | Cn1ccnc1[C@@H](O)C1CCN(C(=O)c2cccc(-c3cncnc3)c2)CC1 | -4% | 0.62
8 | CCc1ccc(-c2nc(Nc3ccccc3OC)sc2C)cc1 | -17% | 3.75
9 | CC(C)c1nc(N2CCN(C(=O)[C@@H]3CCCN3C)CC2)c2cc[nH]c2n1 | -4% | 0.9
10 | CCOc1cccc(N2CCN(C(=O)c3cc(-c4ccc(F)cc4)[nH]n3)CC2)n1 | 39% | -8.48
11 | CN1CCCCC1CN1CCN(CC(O)CN2CCOCC2)CC1 (stereo not drawn) | -3% | 0.59
12 | COCCn1ccc(Nc2ncnc3ccc(Br)cc23)n1 | -6% | 0.88
13 | OC1CCN(Cc2ccccc2CNc2ncnc3ccccc23)CC1 | 18% | -3.58
14 | COc1cc2nc(N3CC(O)C(Cc4cc(C)no4)C3)nc(N)c2cc1OC (stereo not drawn) | -5% | 0.89
15 | CN1C(=O)COc2ccc(C(=O)N3CCC[C@@]4(CCOC4)C3)cc21 | -9% | 1.51
16 | Cn1ncc2c(N)nc(N3CCC(CCCn4ccnc4)CC3)nc21 | -4% | 0.76
17 | CC1(C)CC(NCc2ccc(Cl)cc2-n2cncn2)CC(C)(C)N1 | 1% | -0.12
18 | c1cc(Nc2ccnc(C3CC3)n2)cc(N2CCCCCC2)c1 | -1% | 0.19
19 | c1csc(CN2CCC(NCc3cnc(NC[C@H]4CCCO4)nc3)CC2)c1 | -4% | 0.79
20 | COc1ccc(CCN2CCC(CN(C)C[C@H]3CCOC(C)(C)C3)CC2)cc1 | -4% | 0.72
21 | CN(C)c1ccc(NCc2c[nH]nc2-c2ccccc2)nc1 | -8% | 1.33
22 | Cc1ccncc1S(=O)(=O)N(c1ccccc1)C1CCN(C)CC1 | -9% | 1.39
23 | c1ccc(-c2ncn(Cc3ncn[nH]3)c2-c2ccc(-c3cncnc3)cc2)cc1 | -4% | 0.73
24 | CS(=O)(=O)c1ccc2ncnc(NCc3ccnc(OCC(F)F)c3)c2c1 | -6% | 1.04
25 | c1ccc(-c2nc3c(c(NCc4ccc5cc[nH]c5c4)n2)CCNC3)nc1 | -7% | 1.07
26 | CN(C)S(=O)(=O)CC1COCC1NC(=O)c1ccc2[nH]ccc2c1 (stereo not drawn) | 5% | -1.1
27 | CNc1cc(-c2noc(C3CCOC(C)C3)n2)c2ccccc2n1 (stereo not drawn) | -13% | 2.38

Row | Structure (SMILES) | % Inhibition | Z score
28 | Cc1csc(=O)n1Cc1nnc(C(C)C)o1 | -8% | 1.5
29 | O=C(Cc1cn2c(n1)CCCC2)Nc1ccc2sc(C(=O)O)cc2c1 | 3% | -0.51
30 | O=C1NC(=O)N2CCN(S(=O)(=O)c3cc4c(cc3Br)OCCO4)CC12 (stereo not drawn) | -4% | 0.72
31 | Cc1cc(NCc2cccc3cc[nH]c23)ccc1OCCN1CCCC1 | -9% | 1.54
32 | C[C@@H](CCN1CCN(C2CC2)CC1)N1CCN(C2CC2)CC1 | -2% | 0.42
33 | c1ccc(CO[C@@H]2CCC[C@H]2Nc2ccc3cc[nH]c3n2)cc1 | 2% | -0.29
34 | c1nc(NCc2ccc3c(c2)OCCCO3)cc(N2CCCC2)n1 | -12% | 2.06
35 | C[C@@H](c1cccc(-c2cc(F)c3nc(N)sc3c2)c1)N1CCCC1 | -6% | 0.93
36 | Cc1cc2c(NCC[C@H]3CCCCN3C3CCCC3)ncnc2s1 | 6% | -1.26
37 | c1ccc(-n2cc(CN3CCN(C4CCOCC4)CC3)c(-c3ccncc3)n2)cc1 | 1% | -0.21
38 | CCC(C)C(NC(=O)OC(C)(C)C)C(=O)N(C)CCOc1ccccc1 (stereo not drawn) | 6% | -1.39
39 | FC(F)(F)c1cc(N2CCC(Nc3cc(C4CCC4)ncn3)CC2)ncn1 | 4% | -0.85
40 | Cc1ncccc1Oc1ncnc(NCCN2CCC[C@H](CO)C2)c1C | 2% | -0.26
41 | CC(C)CN(Cc1ccc(C#N)cc1)C(=O)CCc1cnn(C)n1 | 2% | -0.37
42 | COc1ccc2oc([C@H](C)NC(=O)c3cc4ccccc4c(=O)n3C)c(C)c2c1 | -4% | 0.57
43 | CC(C)CN1CCC(N[C@H]2CCN(CCc3ccccc3)C2)CC1 | 8% | -1.65
44 | CCN(CCN1CCCCCC1)C(=O)c1cccc(-c2cccc(O)n2)c1 | 0% | -0.05
45 | CCN(Cc1ccc2c(c1)OCO2)C(=O)c1c(C)oc2ccc(OC)cc12 | -5% | 1.12
46 | Nc1nc(NCc2ccc(NC(=O)c3cccnc3)cc2)nc2ccccc12 | -3% | 0.58
47 | Cn1c(CN2CCN(C3CCCC3)CC2)nc2c1c(=O)[nH]c(=O)n2C | -6% | 0.97
48 | Cc1ccc(NCCCNCc2ccc(C)c3ncccc23)nc1 | 0% | -0.06
49 | Nc1nc(NCCCn2nnc3ccccc32)cc([C@H]2C[C@H](N)C2)n1 | 20% | -3.59
50 | CCC(Nc1ncnc2ccccc12)[C@H]1C[C@@H](O)C1 (stereo partly drawn) | -4% | 0.71
51 | C[C@@H](CN1CCOCC1)NCc1ccc2c[nH]nc2c1 | 0% | -0.06
52 | c1ccc(-c2nc3c(c(NCCNc4ncccn4)n2)CCC3)nc1 | 41% | -7.15
53 | N#Cc1ccccc1OC[C@@H](O)CNCc1ccccc1CN1CCC(O)CC1 | 7% | -1.08
54 | O[C@@]1(CNc2cc(C(F)(F)F)nc(N3CCCC3)n2)CCCNCC1 | -12% | 1.86
